# Source: the supplement of paper PMC8728848
# This is one part of the list.
# B1: OrysaEULS2 (Oryza sativa) (protein)
# chain: MVYCRANPNYAMTARNGAVVLAPANPKDEYQHWIKDMRWSTSIKDEEGYPAFALVNKATGQAIKHSLGQSHPVRLVPYNPEVMDESVLWTESRDVGNGFRCIRMVNNIYLNFDAFHGDKYHGGVRDGTDIVLWKWCEGDNQRWKIQPYYILEQKLISEEDLNSAVDHHHHHH
# Legend:
# Assay in all cases: glycan array binding signal (z-score within array); higher = stronger binding
# Details in all cases: glycan notation: IUPAC condensed, linker removed
# [1] = target: Man(a1-3)[Man(a1-6)]Man(a1-6)[Man(a1-3)]Man(b1-4)GlcNAc(b1-4)GlcNAc
# Outline: (§1)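 Arrays were curated from the Consortium for Functional Glycomics database, 3228 in total, and kept only where the protein sequence was available. Binding is expressed as a within-array Z-score. This score was averaged across arrays of the same protein sequence at different concentrations or buffers and across linkers, and negative values can be read as non-binding.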
# [2] = target: Man(a1-3)[Man(a1-6)]Man(b1-4)GlcNAc(b1-4)GlcNAc
# Outline: as §1
# [3] = target: Man(a1-3)[Man(a1-6)]Man(b1-4)GlcNAc(b1-4)[Fuc(a1-6)]GlcNAc
# Outline: as §1
# Man(a1-6)Man = target: Man(a1-6)Man
# Outline: as §1
# Man(b1-4)GlcNAc = target: Man(b1-4)GlcNAc
# Outline: as §1
# MurNAc(b1-4)GlcNAc = target: MurNAc(b1-4)GlcNAc
# Outline: as §1
# Neu5Ac(a2-3)Gal = target: Neu5Ac(a2-3)Gal
# Outline: as §1
# [4] = target: Neu5Ac(a2-3)Gal(b1-3)GalNAc
# Outline: as §1
# [5] = target: Neu5Ac(a2-3)Gal(b1-3)GalNAc(b1-3)Gal(a1-4)Gal(b1-4)Glc
# Outline: as §1
# [6] = target: Neu5Ac(a2-3)Gal(b1-3)GalNAc(b1-4)[Neu5Ac(a2-3)]Gal(b1-4)Glc
# Outline: as §1
# [7] = target: Neu5Ac(a2-3)Gal(b1-3)GalNAc(b1-4)[Neu5Ac(a2-8)Neu5Ac(a2-3)]Gal(b1-4)Glc
# Outline: as §1
# [8] = target: Neu5Ac(a2-3)Gal(b1-3)GalNAc6S
# Outline: as §1
# [9] = target: Neu5Ac(a2-3)Gal(b1-3)GlcNAc
# Outline: as §1
# [10] = target: Neu5Ac(a2-3)Gal(b1-3)GlcNAc(b1-2)Man
# Outline: as §1
# [11] = target: Neu5Ac(a2-3)Gal(b1-3)GlcNAc(b1-2)Man(a1-3)[GlcNAc(b1-4)][Neu5Ac(a2-3)Gal(b1-3)GlcNAc(b1-2)Man(a1-6)]Man(b1-4)GlcNAc(b1-4)GlcNAc
# Outline: as §1
# [12] = target: Neu5Ac(a2-3)Gal(b1-3)GlcNAc(b1-2)Man(a1-3)[Neu5Ac(a2-3)Gal(b1-3)GlcNAc(b1-2)Man(a1-6)]Man(b1-4)GlcNAc(b1-4)GlcNAc
# Outline: as §1
# [13] = target: Neu5Ac(a2-3)Gal(b1-3)GlcNAc(b1-3)Gal(b1-3)GlcNAc
# Outline: as §1
# [14] = target: Neu5Ac(a2-3)Gal(b1-3)GlcNAc(b1-3)Gal(b1-4)GlcNAc
# Outline: as §1
# [15] = target: Neu5Ac(a2-3)Gal(b1-3)GlcNAc(b1-3)GalNAc
# Outline: as §1
# [16] = target: Neu5Ac(a2-3)Gal(b1-3)GlcNAc(b1-4)Gal(b1-4)Glc
# Outline: as §1
# [17] = target: Neu5Ac(a2-3)Gal(b1-3)GlcNAc(b1-6)GalNAc
# Outline: as §1
# [18] = target: Neu5Ac(a2-3)Gal(b1-3)GlcNAc6S
# Outline: as §1
# [19] = target: Neu5Ac(a2-3)Gal(b1-3)[Fuc(a1-4)]GlcNAc
# Outline: as §1
# [20] = target: Neu5Ac(a2-3)Gal(b1-3)[Fuc(a1-4)]GlcNAc(b1-3)Gal(b1-3)[Fuc(a1-4)]GlcNAc
# Outline: as §1
# [21] = target: Neu5Ac(a2-3)Gal(b1-3)[Fuc(a1-4)]GlcNAc(b1-3)Gal(b1-4)[Fuc(a1-3)]GlcNAc
# Outline: as §1
# [22] = target: Neu5Ac(a2-3)Gal(b1-3)[GlcNAc(b1-6)]GalNAc
# Outline: as §1
# [23] = target: Neu5Ac(a2-3)Gal(b1-3)[Neu5Ac(a2-3)Gal(b1-4)]GlcNAc
# Outline: as §1
# [24] = target: Neu5Ac(a2-3)Gal(b1-3)[Neu5Ac(a2-6)]GalNAc
# Outline: as §1
# [25] = target: Neu5Ac(a2-3)Gal(b1-3)[Neu5Ac(a2-6)]GlcNAc(b1-3)[Fuc(a1-3)[Gal(b1-4)]GlcNAc(b1-6)]Gal(b1-4)Glc
# Outline: as §1
# [26] = target: Neu5Ac(a2-3)Gal(b1-3)]Neu5Ac(a2-3)Gal(b1-4)]GlcNAc
# Outline: as §1
# Neu5Ac(a2-3)Gal(b1-4)Glc = target: Neu5Ac(a2-3)Gal(b1-4)Glc
# Outline: as §1
# [27] = target: Neu5Ac(a2-3)Gal(b1-4)GlcNAc
# Outline: as §1
# [28] = target: Neu5Ac(a2-3)Gal(b1-4)GlcNAc(b1-2)Man
# Outline: as §1
# [29] = target: Neu5Ac(a2-3)Gal(b1-4)GlcNAc(b1-2)Man(a1-3)[GlcNAc(b1-2)Man(b1-4)GlcNAc(b1-2)Man(a1-6)]Man(b1-4)GlcNAc(b1-4)GlcNAc
# Outline: as §1
# [30] = target: Neu5Ac(a2-3)Gal(b1-4)GlcNAc(b1-2)Man(a1-3)[GlcNAc(b1-4)][Neu5Ac(a2-3)Gal(b1-4)GlcNAc(b1-2)Man(a1-6)]Man(b1-4)GlcNAc(b1-4)GlcNAc
# Outline: as §1
# [31] = target: Neu5Ac(a2-3)Gal(b1-4)GlcNAc(b1-2)Man(a1-3)[Neu5Ac(a2-3)Gal(b1-4)GlcNAc(b1-2)Man(a1-6)]Man(b1-4)GlcNAc(b1-4)GlcNAc
# Outline: as §1
# [32] = target: Neu5Ac(a2-3)Gal(b1-4)GlcNAc(b1-2)Man(a1-3)[Neu5Ac(a2-3)Gal(b1-4)GlcNAc(b1-2)Man(a1-6)]Man(b1-4)GlcNAc(b1-4)[Fuc(a1-6)]GlcNAc
# Outline: as §1
# [33] = target: Neu5Ac(a2-3)Gal(b1-4)GlcNAc(b1-2)Man(a1-3)[Neu5Ac(a2-6)Gal(b1-4)GlcNAc(b1-2)Man(a1-6)]Man(b1-4)GlcNAc(b1-4)GlcNAc
# Outline: as §1
# [34] = target: Neu5Ac(a2-3)Gal(b1-4)GlcNAc(b1-2)[Neu5Ac(a2-3)Gal(b1-4)GlcNAc(b1-4)]Man(a1-3)[GlcNAc(b1-4)][Neu5Ac(a2-3)Gal(b1-4)GlcNAc(b1-2)[Neu5Ac(a2-3)Gal(b1-4)GlcNAc(b1-6)]Man(a1-6)]Man(b1-4)GlcNAc(b1-4)GlcNAc
# Outline: as §1
# [35] = target: Neu5Ac(a2-3)Gal(b1-4)GlcNAc(b1-2)[Neu5Ac(a2-3)Gal(b1-4)GlcNAc(b1-4)]Man(a1-3)[GlcNAc(b1-4)][Neu5Ac(a2-3)Gal(b1-4)GlcNAc(b1-4)Man(a1-6)]Man(b1-4)GlcNAc(b1-4)GlcNAc
# Outline: as §1
# [36] = target: Neu5Ac(a2-3)Gal(b1-4)GlcNAc(b1-2)[Neu5Ac(a2-3)Gal(b1-4)GlcNAc(b1-6)]Man(a1-6)[Neu5Ac(a2-3)Gal(b1-4)GlcNAc(b1-2)Man(a1-3)]Man(b1-4)GlcNAc(b1-4)GlcNAc
# Outline: as §1
# [37] = target: Neu5Ac(a2-3)Gal(b1-4)GlcNAc(b1-2)[Neu5Ac(a2-3)Gal(b1-4)GlcNAc(b1-6)]Man(a1-6)[Neu5Ac(a2-3)Gal(b1-4)GlcNAc(b1-2)Man(a1-3)][GlcNAc(b1-4)]Man(b1-4)GlcNAc(b1-4)GlcNAc
# Outline: as §1
# [38] = target: Neu5Ac(a2-3)Gal(b1-4)GlcNAc(b1-3)Gal
# Outline: as §1
# [39] = target: Neu5Ac(a2-3)Gal(b1-4)GlcNAc(b1-3)Gal(b1-3)GlcNAc
# Outline: as §1
# [40] = target: Neu5Ac(a2-3)Gal(b1-4)GlcNAc(b1-3)Gal(b1-4)GlcNAc
# Outline: as §1
binder,measurement,setting,value
B1,glycan array binding signal (z-score),[1],4.45
same,glycan array binding signal (z-score),[2],12.5
same,glycan array binding signal (z-score),[3],1.44
same,glycan array binding signal (z-score),Man(a1-6)Man,0.33
same,glycan array binding signal (z-score),Man(b1-4)GlcNAc,-0.199
same,glycan array binding signal (z-score),MurNAc(b1-4)GlcNAc,-0.26
same,glycan array binding signal (z-score),Neu5Ac(a2-3)Gal,-0.202
same,glycan array binding signal (z-score),[4],-0.192
same,glycan array binding signal (z-score),[5],-0.195
same,glycan array binding signal (z-score),[6],-0.199
same,glycan array binding signal (z-score),[7],-0.205
same,glycan array binding signal (z-score),[8],-0.174
same,glycan array binding signal (z-score),[9],-0.189
same,glycan array binding signal (z-score),[10],-0.31
same,glycan array binding signal (z-score),[11],-0.181
same,glycan array binding signal (z-score),[12],-0.152
same,glycan array binding signal (z-score),[13],-0.211
same,glycan array binding signal (z-score),[14],-0.2
same,glycan array binding signal (z-score),[15],-0.195
same,glycan array binding signal (z-score),[16],-0.24
same,glycan array binding signal (z-score),[17],-0.202
same,glycan array binding signal (z-score),[18],-0.191
same,glycan array binding signal (z-score),[19],-0.222
same,glycan array binding signal (z-score),[20],-0.21
same,glycan array binding signal (z-score),[21],-0.152
same,glycan array binding signal (z-score),[22],-0.241
same,glycan array binding signal (z-score),[23],-0.182
same,glycan array binding signal (z-score),[24],-0.172
same,glycan array binding signal (z-score),[25],-0.216
same,glycan array binding signal (z-score),[26],-0.248
same,glycan array binding signal (z-score),Neu5Ac(a2-3)Gal(b1-4)Glc,-0.193
same,glycan array binding signal (z-score),[27],-0.193
same,glycan array binding signal (z-score),[28],-0.152
same,glycan array binding signal (z-score),[29],0.355
same,glycan array binding signal (z-score),[30],-0.219
same,glycan array binding signal (z-score),[31],0.557
same,glycan array binding signal (z-score),[32],-0.057
same,glycan array binding signal (z-score),[33],1.04
same,glycan array binding signal (z-score),[34],-0.243
same,glycan array binding signal (z-score),[35],-0.273
same,glycan array binding signal (z-score),[36],0.194
same,glycan array binding signal (z-score),[37],-0.099
same,glycan array binding signal (z-score),[38],-0.196
same,glycan array binding signal (z-score),[39],-0.192
same,glycan array binding signal (z-score),[40],-0.222
